{
  "source": "PubChem BioAssay AID485360",
  "about": "(National Center for Advancing Translational Sciences (NCATS), 2010)",
  "note": "Screen size: about 230,000 compounds; about 1,500 (0.65%) were called active. Inconclusive results, whose numbers are uncertain, are shown with a selection of clear calls. Calls come from the whole dose curve; as a rule, active = well fitted inhibition curve with a large enough effect; inconclusive = small, poorly fitted or top-dose-only effect; inactive = no such curve, though single readings can be large or run the other way. Potencies beside an inconclusive call are fits to weak or partial responses and may not hold up. % is set by controls: 0 for no effect and ±100 for the full control effect; potency is the fitted concentration of half-maximal effect; tags give direction and shape of the fitted curve.",
  "data": [
    {"target": "Lethal(3)malignant brain tumor-like protein 1 (Homo sapiens) (UniProt Q9Y468)", "sequence (Q9Y468 whole entry, looked up)": "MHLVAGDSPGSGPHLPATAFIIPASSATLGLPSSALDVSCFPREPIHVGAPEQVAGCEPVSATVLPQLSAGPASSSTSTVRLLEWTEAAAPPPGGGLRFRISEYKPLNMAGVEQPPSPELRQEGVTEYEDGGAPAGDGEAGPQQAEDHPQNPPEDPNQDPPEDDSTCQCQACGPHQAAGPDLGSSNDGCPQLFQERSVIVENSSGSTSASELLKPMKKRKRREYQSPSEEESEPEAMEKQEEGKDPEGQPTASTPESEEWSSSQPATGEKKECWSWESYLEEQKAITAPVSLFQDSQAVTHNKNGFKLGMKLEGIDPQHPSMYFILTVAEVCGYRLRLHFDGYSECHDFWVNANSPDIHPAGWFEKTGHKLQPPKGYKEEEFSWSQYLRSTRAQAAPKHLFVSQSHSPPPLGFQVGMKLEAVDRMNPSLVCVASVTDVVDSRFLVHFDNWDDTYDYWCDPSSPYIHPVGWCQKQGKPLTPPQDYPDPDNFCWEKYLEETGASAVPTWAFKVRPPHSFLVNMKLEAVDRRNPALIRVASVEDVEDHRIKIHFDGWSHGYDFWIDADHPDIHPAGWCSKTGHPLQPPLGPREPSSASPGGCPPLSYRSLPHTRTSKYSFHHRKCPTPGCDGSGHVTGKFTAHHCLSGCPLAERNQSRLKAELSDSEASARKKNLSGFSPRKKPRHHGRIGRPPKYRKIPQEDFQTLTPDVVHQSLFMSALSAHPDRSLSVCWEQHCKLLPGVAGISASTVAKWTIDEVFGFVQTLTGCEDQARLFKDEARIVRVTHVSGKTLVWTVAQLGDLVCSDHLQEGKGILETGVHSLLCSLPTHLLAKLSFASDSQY", "assay": "qHTS Assay for the Inhibitors of L3MBTL1; note: nearly all actives have a fitted effect of over 60% in size", "conditions": "AlphaScreen L3MBTL1–H3K9me1 peptide binding; activity, negative = inhibition: at 57.1 µM (top of the series)", "procedure,_shortened": "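L3MBTL1 (50 nM) pre-complexed 30 min with biotinylated H3(1-15)K9me1 peptide (75 nM), then compounds added for 30 min at room temperature; AlphaScreen streptavidin donor/nickel chelate acceptor beads (10 ug/mL final) read after 30 min dark incubation.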", "values": [
      {"smiles": "Cc1ccc(/C=C/C2=Cc3c(sc(NC(=O)CSc4n[nH]c(N)n4)c3C#N)C(C)(C)C2)o1", "Potency": "inconclusive: 31.6 µM [inhibitor, single point]"},
      {"smiles": "CCc1cc(=O)oc2cc(C)c(CN3CCCCC3)c(O)c12", "Potency": "active: 12.6 µM"},
      {"smiles": "CC(=O)NCCC(=O)Nc1cc(S(=O)(=O)N2CCCCC2)ccc1N1CCCCC1", "Potency": "inconclusive: 0.794 µM [inhibitor, single point]"},
      {"smiles": "COc1cc(NC(=O)c2ccccc2-c2ccccc2)cc(OC)c1OC", "activity, negative = inhibition": "inactive: 7.1%"},
      {"smiles": "Cc1ccc(S(=O)(=O)NC(C(=O)Oc2ccc3ccc(=O)oc3c2)c2ccccc2)cc1", "note": "(configuration not stated)", "activity, negative = inhibition": "inactive: 9.26%"},
      {"smiles": "O=C(CCS(=O)(=O)c1ccccc1)Nc1ccc(N2CCN(Cc3ccccc3)CC2)cc1", "Potency": "inconclusive: 39.8 µM [inhibitor, single point]"},
      {"smiles": "Cc1csc(=Nc2ccccc2)n1Cc1ccco1", "Potency": "inconclusive: 39.8 µM [inhibitor, single point]"},
      {"smiles": "O=C1CCc2cc(S(=O)(=O)N3CCCCC3)cc3c2N1CC3", "Potency": "inconclusive: 28.2 µM [inhibitor, single point]"},
      {"smiles": "COc1ccc(C(=O)NC(=S)N(Cc2ccccc2)Cc2ccccc2)cc1", "Potency": "inconclusive: 28.2 µM [inhibitor, single point]"},
      {"smiles": "COc1cc2c3c(c1)/C(=C1/SC(NC(C)=O)=NC1=O)C(=O)N3C(C)(C)C=C2C", "activity, negative = inhibition": "inactive: -13.3%"},
      {"smiles": "OC1(Cc2ccccc2)CCNCC1", "activity, negative = inhibition": "inactive: 2.58%"},
      {"smiles": "CS(=O)(=O)c1ccc(Cl)c(NC(=O)C2CC(=O)N(Cc3ccco3)C2)c1", "note": "(configuration not stated)", "Potency": "inconclusive: 6.31 µM [inhibitor, single point]"},
      {"smiles": "Cc1cccc(NC(=O)C2CC(=O)OC23CCCC3)c1", "note": "(configuration not stated)", "Potency": "inconclusive: 39.8 µM [inhibitor, single point]"},
      {"smiles": "Cc1cc(C)cc(N2C(=O)CC(Sc3nnnn3-c3ccccc3)C2=O)c1", "note": "(configuration not stated)", "activity, negative = inhibition": "inactive: 6.42%"},
      {"smiles": "O=C(O)CCC(=O)N1N=C(c2c(-c3ccccc3)c3cc(Cl)ccc3[nH]c2=O)CC1c1cccs1", "note": "(configuration not stated)", "activity, negative = inhibition": "inactive: 4.72%"},
      {"smiles": "O=C(CSc1n[nH]c(-c2ccccc2)n1)c1ccc(O)c(O)c1", "Potency": "inconclusive: 35.5 µM [inhibitor, single point]"},
      {"smiles": "O=S(=O)(c1cccs1)N1CN(Cc2ccco2)c2nc3ccccc3nc21", "Potency": "inconclusive: 35.5 µM [inhibitor, partial curve]"},
      {"smiles": "O=C(NCc1ccco1)/C(=C\\c1cccnc1)NC(=O)c1ccccc1F", "Potency": "inconclusive: 0.794 µM [inhibitor, full curve, poor fit]"},
      {"smiles": "O=C1/C(=C\\c2ccc(Br)o2)SC(=Nc2ccccc2)N1c1ccccc1", "Potency": "inconclusive: 35.5 µM [inhibitor, single point]"},
      {"smiles": "C=C(C)C(=O)Nc1ccc2c(c1)OCCOCCOCCO2", "Potency": "active: 3.55 µM"},
      {"smiles": "O=C(COC(=O)c1ccc(O)cc1)Nc1ncc(Cl)cc1Cl", "Potency": "inconclusive: 28.2 µM [inhibitor, single point]"},
      {"smiles": "O=C1/C(=C/c2cccnc2)SC(=S)N1c1ccccc1", "activity, negative = inhibition": "inactive: -1.3%"},
      {"smiles": "Cn1c(COc2ccc3ccccc3c2)nnc1SCC(=O)OC1CCCCC1", "Potency": "inconclusive: 5.01 µM [inhibitor, full curve, poor fit]"},
      {"smiles": "O=C(c1c(F)c(F)c(F)c(F)c1F)N1CCN(c2cccc(C(F)(F)F)c2)CC1", "Potency": "inconclusive: 1.12 µM [inhibitor, partial curve]"},
      {"smiles": "CCn1c(CSc2nnc(C)n2-c2ccccc2)nc2cc(S(=O)(=O)N(C)C)ccc21", "activity, negative = inhibition": "inactive: -1.38%"},
      {"smiles": "C#CNC(=O)C1(CC=C)CCNCC1", "activity, negative = inhibition": "inactive: 1.61%"},
      {"smiles": "O=C(O)CC12CC3CC(C1)CC(n1ncc(NCC4CCCO4)c(Cl)c1=O)(C3)C2", "note": "(configuration not stated)", "activity, negative = inhibition": "inactive: 1.08%"},
      {"smiles": "CCCOc1ccc(C2c3c(oc4cc(C)c(C)cc4c3=O)C(=O)N2CCCN(C)C)cc1", "note": "(configuration not stated)", "Potency": "inconclusive: 39.8 µM [inhibitor, single point]"},
      {"smiles": "O=C(COC(=O)/C=C/c1ccc(Br)o1)NC1CCCCC1", "Potency": "inconclusive: 28.2 µM [inhibitor, single point]"},
      {"smiles": "S=C(Nc1ccccc1)Nc1nc2ccccc2n1CCOc1ccc(Cl)cc1", "Potency": "active: 11.2 µM"},
      {"smiles": "CC(=O)c1ccc(-n2nnnc2SCC(=O)Nc2sc(C)c(C)c2C#N)cc1", "Potency": "inconclusive: 25.1 µM [inhibitor, single point]"},
      {"smiles": "CCOc1cccc(CNc2ccc(O)cc2)c1OCc1ccccc1Cl", "Potency": "active: 39.8 µM"},
      {"smiles": "O=C(N/N=C/c1cc([N+](=O)[O-])ccc1O)c1ccncc1", "Potency": "inconclusive: 14.1 µM [inhibitor, partial curve]"},
      {"smiles": "C=CCn1c(O)c(C(CC)=NCCN2CCOCC2)c(=O)[nH]c1=O", "activity, negative = inhibition": "inactive: 0.607%"},
      {"smiles": "CC(C)c1ccc2c(c1)C1(NN=C(c3ccccc3)S1)C(=O)N2", "note": "(configuration not stated)", "Potency": "inconclusive: 39.8 µM [inhibitor, partial curve, poor fit]"},
      {"smiles": "COc1ccc(C(=O)NC2CCN(C(=S)Nc3cc(C)cc(C)c3)CC2)cc1", "Potency": "inconclusive: 8.91 µM [inhibitor, single point]"},
      {"smiles": "CCN=C1S/C(=C\\c2ccc(-c3cccc(C(=O)O)c3)o2)C(=O)N1CC", "Potency": "active: 39.8 µM"},
      {"smiles": "Cc1nc(C/C(=N\\N)c2ccc(O)cc2O)cs1", "activity, negative = inhibition": "inactive: -3.09%"},
      {"smiles": "CC(C)(C)N/N=C/c1cc(Cl)cc([N+](=O)[O-])c1O", "activity, negative = inhibition": "inactive: 4.67%"},
      {"smiles": "CCSC(=Nc1ccccc1)C1=C(O)COC1=O", "activity, negative = inhibition": "inactive: 2.65%"},
      {"smiles": "Brc1cc2ccccc2[n+](Cc2ccccc2)c1", "activity, negative = inhibition": "inactive: 0.0247%"},
      {"smiles": "COc1ccc(N=Nc2ccc3ccccc3c2)c(O)c1", "Potency": "inconclusive: 4.47 µM [inhibitor, full curve, poor fit]"},
      {"smiles": "Cc1cc(NC(=O)CN2CCCC(C)C2)no1", "note": "(configuration not stated)", "Potency": "inconclusive: 6.31 µM [inhibitor, single point]"},
      {"smiles": "CC(C)c1ccc(-n2nc3ccc(N)cc3n2)cc1", "Potency": "inconclusive: 20 µM [inhibitor, partial curve]"},
      {"smiles": "Cc1n[nH]c(C)c1N1C(=O)c2cccc3c(Br)ccc(c23)C1=O", "Potency": "inconclusive: 4.47 µM [inhibitor, full curve]"},
      {"smiles": "Cc1ccc(NS(=O)(=O)c2cc([N+](=O)[O-])ccc2NNC(=S)Nc2cccc(Cl)c2)c(C)c1", "Potency": "active: 25.1 µM"},
      {"smiles": "NC(=O)Cn1c(=O)n(Cc2ccco2)c(=O)c2c3c(sc21)CCCCC3", "Potency": "inconclusive: 31.6 µM [inhibitor, single point]"}
    ]}
  ]
}
